# According to article PMC6212790:
# Some of the results follow. At the low end of the ranking the order means little.
# Molecular target: T1, GST-Rok (full length) (UniProt O34857)
# T1 sequence: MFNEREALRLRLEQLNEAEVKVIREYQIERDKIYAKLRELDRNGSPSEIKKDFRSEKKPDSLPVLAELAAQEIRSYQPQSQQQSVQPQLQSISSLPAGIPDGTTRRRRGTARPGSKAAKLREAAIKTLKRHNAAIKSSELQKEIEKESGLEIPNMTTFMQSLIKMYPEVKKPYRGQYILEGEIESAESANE
# Assay: protein binding microarray;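 further: rank score from −0.5 (least bound) to 0.5 (best bound)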
# Conditions: Rok is a gene silencer of Bacillus subtilis; high values mean tight binding; most listed sequences are background and not binding sites; double strand, one strand shown
row,Sequence,binding signal
1,GGAGATAC,0.12 E-score
2,CAGCATAG,-0.0981 E-score
3,GAAGCACA,-0.102 E-score
4,CAGTGGAA,0.0127 E-score
5,GACTGCTA,0.0596 E-score
6,ATGCTGAA,0.102 E-score
7,CGTACGTC,0.121 E-score
8,AGACCGAG,-0.201 E-score
9,CGCCATAC,0.051 E-score
10,GTGAGCAC,-0.141 E-score
11,ATAACCTG,0.0388 E-score
12,CTTAAGGC,-0.222 E-score
13,AAACAAAG,0.128 E-score
14,ATATCCGA,0.189 E-score
15,ACATTTAT,0.281 E-score
16,CCCGAGTC,-0.288 E-score
17,CAGTAAGA,0.228 E-score
18,GTGGGAAA,-0.139 E-score
19,ATATGGAG,0.202 E-score
20,GACATTTA,0.0492 E-score
21,ACTATTAT,0.386 E-score
22,ACGCATCG,-0.103 E-score
23,ATGGTAGA,0.444 E-score
24,CGCCAGCG,-0.182 E-score
25,GTGCGCGA,-0.161 E-score

row,Sequence,binding signal
1,GGTGTTGA,0.171 E-score
2,GCGTCAAC,-0.201 E-score
3,CTCCTCAC,-0.11 E-score
4,AGTTGTCC,-0.0321 E-score
5,ATCGCGGA,0.0458 E-score
6,ACACGAGG,-0.0207 E-score
7,CCTCATGA,-0.228 E-score
8,ATTGGAGA,-0.0523 E-score
9,GATCAATC,-0.0771 E-score
10,GAACATTA,0.159 E-score
11,AAGTGCGA,-0.0736 E-score
12,ATACGTTA,0.138 E-score
13,CAAATCAG,0.0586 E-score
14,TCAAGCAA,-0.0617 E-score
15,CCCTTTAC,-0.291 E-score
16,AAATCTCC,0.176 E-score
17,CAGCGGAG,-0.176 E-score
18,AGGACGTC,-0.26 E-score
19,AACTGCCT,0.0301 E-score
20,GTTGAGGA,-0.0613 E-score
21,AGTGAGCA,-0.0803 E-score
22,ATAGTATA,0.278 E-score
23,AAAAGCAG,0.0313 E-score
24,ACGACACC,0.151 E-score
25,AGAAGCAG,-0.0328 E-score

row,Sequence,binding signal
1,GAAGTCCA,-0.0509 E-score
2,GAGACAAA,-0.0923 E-score
3,TCAATCGA,-0.0465 E-score
4,GTAAAATA,0.328 E-score
5,CACCATTC,-0.0814 E-score
6,AGCGGCAA,-0.199 E-score
7,ATCAAGGA,-0.0849 E-score
8,CGAACCCC,-0.203 E-score
9,ATTGCCAC,0.0766 E-score
10,AAGAAGTA,0.1 E-score
11,TATGGAGA,0.0793 E-score
12,GCAACCTA,0.173 E-score
13,AGTGCTAG,0.00281 E-score
14,GGCTAAAA,0.0026 E-score
15,ACGTGTAG,0.0421 E-score
16,ACTAACCG,-0.0761 E-score
17,GTGGCAAC,-0.17 E-score
18,ATATCCTC,0.0547 E-score
19,ATCGACCG,0.0303 E-score
20,AGCAGGAG,-0.288 E-score
21,GATTGTGA,-0.0953 E-score
22,GTCGGTTA,-0.00548 E-score
23,CAAGATAC,0.15 E-score
24,ACTGACAA,-0.0164 E-score
25,CAGATCTA,0.223 E-score

row,Sequence,binding signal
1,ACGACGTG,0.0776 E-score
2,TAGCTGAA,0.159 E-score
3,CTAGTGTC,0.0749 E-score
4,TAAGGGAA,-0.061 E-score
5,CGGGAGGC,-0.303 E-score
6,TATGGGCA,-0.0796 E-score
7,CCTGAACG,-0.257 E-score
8,CTGAAGGC,-0.186 E-score
9,AACCACCG,-0.212 E-score
10,CATGAAAA,-0.0975 E-score
11,CAATCTCC,0.0032 E-score
12,GCGTATTA,0.0897 E-score
13,CAGGATAC,0.0188 E-score
14,GGGCTAGA,-0.115 E-score
15,CTCCCCCA,-0.373 E-score
16,GCGTAAGC,-0.127 E-score
17,CACCACGA,-0.16 E-score
18,ATTGAAAT,0.207 E-score
19,ACAAAATA,0.34 E-score
20,AGCGGTAT,0.321 E-score
21,AAATCGGC,0.0274 E-score
22,ACAAATGT,0.112 E-score
23,GGTTAGCA,0.0592 E-score
24,GCGTGAAC,0.00198 E-score
25,AGTTCTCC,0.0135 E-score

row,Sequence,binding signal
1,GAACTCGC,-0.0505 E-score
2,GCGTTCAC,-0.164 E-score
3,CATCGGTA,0.157 E-score
4,ACGTATCA,0.0936 E-score
5,CAGTCGAG,-0.0599 E-score
6,AATTTGTA,0.352 E-score
7,CCATATAC,0.251 E-score
8,AGTGGATA,0.135 E-score
9,ATCCACTA,0.182 E-score
10,ACTGGATC,-0.0472 E-score
11,CTCCTGGA,-0.0893 E-score
12,AGAACAGG,-0.0661 E-score
13,CGCAGCCG,-0.21 E-score
14,CTCTAGGC,-0.146 E-score
15,GCGCAGCC,-0.368 E-score
16,TGCAGCAA,0.0559 E-score
17,AAATCTGG,-0.0994 E-score
18,GGGCCATA,-0.00464 E-score
19,CTCAGGAG,-0.23 E-score
20,CCTTATCG,-0.135 E-score
21,CGGTGTCA,-0.119 E-score
22,CGCGAGCA,-0.0323 E-score
23,AACATATG,0.294 E-score
24,CGTAAGAG,-0.00808 E-score
25,AAGGGATG,-0.102 E-score

row,Sequence,binding signal
1,CGGCTAGA,-0.0329 E-score
2,TACATTGA,0.229 E-score
3,ACGCACGG,-0.181 E-score
4,CGGTTTCC,-0.277 E-score
5,AGTGAACG,-0.0491 E-score
6,GAGCAACC,-0.256 E-score
7,ACGTAGCT,0.268 E-score
8,CGAGGGAG,-0.331 E-score
9,AGTTCAGA,0.0641 E-score
10,GAAGGGAA,-0.156 E-score
11,CTGCAAAC,-0.0694 E-score
12,ACCCTCAG,-0.249 E-score
13,ACAAGGAA,-0.0483 E-score
14,TATCCCGA,0.0019 E-score
15,CATCACAC,-0.0484 E-score
16,CGCGTCCG,-0.384 E-score
17,CAAATCCG,-0.0659 E-score
18,GCACATAA,0.0865 E-score
19,ATTTAAGC,0.0741 E-score
20,GAATCTAC,0.425 E-score
21,TCGGATCA,0.0532 E-score
22,AGCCTCGA,-0.247 E-score
23,AGCGTTCG,-0.262 E-score
24,GGAGCCCA,-0.322 E-score
25,TCACTGAA,-0.0635 E-score

row,Sequence,binding signal
1,AGTTACAG,0.213 E-score
2,GGTTTGAA,-0.0955 E-score
3,CAGAAATA,0.303 E-score
4,ATAAGCCA,-0.106 E-score
5,CATGTGCA,-0.0661 E-score
6,GTGGCCTA,0.0275 E-score
7,ATTGCCAA,0.0149 E-score
8,AACCAATG,-0.129 E-score
9,AAGTTGTC,-0.0239 E-score
10,ACCAGAGA,-0.0288 E-score
11,GAGAATGA,-0.0471 E-score
12,CAAGTAAA,0.173 E-score
13,AACTCAAT,0.296 E-score
14,GCTGAATA,0.228 E-score
15,GGCATTAC,-0.0173 E-score
16,ATGGTTGC,-0.15 E-score
17,TACTTGCA,0.142 E-score
18,AAATGGCA,0.0453 E-score
19,AGAATGGC,-0.0238 E-score
20,ATTGTTCG,0.115 E-score
21,AACGTCTG,-0.369 E-score
22,AACAGACA,0.174 E-score
